# From the antibiotic and cytotoxicity screens of Wong et al. (2023)
# Some of the results follow.
# Key:
# [1] = tested on: HSkMC (human skeletal muscle cells); experiment: cytotoxicity call (relative viability < 0.9); conditions: 10 µM
# [2] = tested on: HepG2; experiment: cytotoxicity call (relative viability < 0.9); conditions: 10 µM
# [3] = tested on: S. aureus RN4220; experiment: growth inhibition call (relative growth <= 0.2); conditions: 50 µM
SMILES,cytotoxicity call [1],cytotoxicity call [2],growth inhibition call [3]
COc1ccc(S(=O)(=O)N(C)C[C@@H]2Oc3ccc(NC(=O)Cc4ccccc4)cc3C(=O)N([C@@H](C)CO)C[C@H]2C)cc1,inactive,inactive,inactive
COc1ccc(S(=O)(=O)Nc2ccc3c(c2)CC(=O)N([C@H](C)CO)C[C@H](C)[C@H](CN(C)Cc2ccc(Cl)c(Cl)c2)O3)cc1,active,active,inactive
COc1ccc(CN(C)C[C@H]2OCCCC[C@H](C)Oc3ccc(NS(=O)(=O)c4ccc(C)cc4)cc3C(=O)N([C@H](C)CO)C[C@H]2C)cc1,inactive,inactive,inactive
C[C@H]1CN([C@@H](C)CO)C(=O)CCCn2nncc2CO[C@H]1CN(C)S(=O)(=O)c1ccc(C#N)cc1,inactive,inactive,inactive
C[C@@H]1CN([C@@H](C)CO)C(=O)Cc2cc(NS(=O)(=O)c3cccs3)ccc2O[C@H]1CN(C)CC1CC1,inactive,inactive,inactive
O=C1CCC(C(=O)O)CC1,inactive,inactive,inactive
C[C@@H]1CN([C@H](C)CO)C(=O)c2cccc(NC(=O)CCCCCC(=O)Nc3ccccc3N)c2O[C@@H]1CN(C)Cc1ccc(Oc2ccccc2)cc1,inactive,inactive,inactive
NCC[C@H]1CC[C@@H](NC(=O)C2CC2)[C@@H](CO)O1,inactive,inactive,inactive
C[C@H](CO)N1C[C@H](C)[C@@H](CN(C)Cc2ccc3c(c2)OCO3)Oc2ccc(NC(=O)Nc3ccc(C(F)(F)F)cc3)cc2CC1=O,active,active,inactive
C[C@H]1CN([C@@H](C)CO)C(=O)c2cc(NC(=O)CCCN(C)C)ccc2O[C@@H]1CN(C)Cc1ccc(Oc2ccccc2)cc1,inactive,active,inactive
